Test results: PubChem BioAssay AID2675 (National Center for Advancing Translational Sciences (NCATS), 2010)
The whole screen tested about 280,000 compounds, of which about 100 (0.036%) were called active. This list was built around the results that the source calls inconclusive (neither active nor inactive); the mix of calls is not that of the screen. Calls follow the shape of the dose curve; as a rule, active = well fitted inhibition curve with a large enough effect in the signal ratio, with a control signal flat (not every such curve was filed as active); inconclusive = small, poorly fitted or top-dose-only effect, or effect the other way, or a change in a side signal; inactive = no such curve, though single readings can be large or run the other way; the % refers to the signal ratio. A potency beside an inconclusive call is a rough fit, not a confirmed value. “Side channel” marks fits to a control or component signal instead of the main read-out.

The compounds below were run against Muscleblind-like protein 1 (Homo sapiens) (UniProt Q9NR56) (assay: qHTS Assay for Inhibitors of MBNL1-poly(CUG) RNA binding). Conditions: TR-FRET MBNL1-His/biotin-(CUG)12 binding, 665/545 ratio; activity change, negative = inhibition: at 57.5 µM (top of the series).
UniProt Q9NR56, sequence (Q9NR56 whole entry, looked up): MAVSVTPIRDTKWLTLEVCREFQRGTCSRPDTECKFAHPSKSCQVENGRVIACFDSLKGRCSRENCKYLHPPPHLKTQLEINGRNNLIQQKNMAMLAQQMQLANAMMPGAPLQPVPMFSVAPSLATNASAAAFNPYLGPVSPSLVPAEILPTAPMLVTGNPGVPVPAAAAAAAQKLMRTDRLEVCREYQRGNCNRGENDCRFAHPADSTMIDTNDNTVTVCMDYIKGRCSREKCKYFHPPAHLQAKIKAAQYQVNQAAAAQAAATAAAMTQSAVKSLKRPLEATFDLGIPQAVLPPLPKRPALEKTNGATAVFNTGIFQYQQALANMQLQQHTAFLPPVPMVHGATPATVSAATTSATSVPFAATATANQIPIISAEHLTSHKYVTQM
Method in brief: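 MBNL1-His + Biotin-(CUG)12, cpd titration 92 nM–58 uM; Tb anti-His Ab 0.055 ng/ul, SA-XL665 5 nM (final); 60 min RT; ratiometric 665/545 nm, Ex 340 nm; normalized to buffer and full-complex controls.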
% is scaled to controls: 0 for no effect and ±100 for the full control effect; potency is read from the fitted curve at half-maximal effect; tags tell the direction and shape of the fitted curve or compound fluorescence and quenching.

Question: `CN1CCc2c(sc(/N=C/c3cc(Cl)ccc3O)c2C#N)C1` was tested. Which “activity change, negative = inhibition” value did it give?
Answer: Its value is inactive: -0.135%.

Question: For `O=C(N/N=C1\CCCc2ccccc21)c1ccc([N+](=O)[O-])cc1Cl`, which Potency is on record?
Answer: The Potency was inconclusive: 10 µM [quencher, partial curve].

Question: `O=C(C[n+]1cccc(CNC(=O)c2ccc(OC(F)F)cc2)c1)Nc1ccc(F)cc1` was tested. Which Potency did it give?
Answer: Its Potency is inconclusive: 0.158 µM [quencher, side channel, full curve, poor fit].

Question: `COc1ccc(-c2ccc(=O)n(CC(=O)Nc3ccc4c(c3)OCCO4)n2)cc1` was tested. Which Potency did it give?
Answer: The Potency was inconclusive: 11.2 µM [quencher, side channel, partial curve].

Question: For `CCCCOCC(O)CCc1n[nH]c(=S)n1-c1ccccc1` (centres undefined), which “activity change, negative = inhibition” value is on record?
Answer: The value was inactive: -19%.

Question: With `CC1Cc2cc(/C(O)=C3/C(=O)C(=O)N(CC4CCCO4)C3c3ccco3)ccc2O1` (centres undefined) as the compound, how does the “activity change, negative = inhibition” value read?
Answer: The value was inactive: -0.155%.

Question: For `COc1ccc(NC(=O)C(=O)c2cn(CC(=O)N3CCCC3)c3ccccc23)cc1OC`, which Potency is on record?
Answer: Its Potency is inconclusive: 14.1 µM [quencher, side channel, partial curve].

Question: `CC(=O)Nc1cccc(C(=O)/C=C/c2ccc(N(C)C)cc2)c1` was tested. Which Potency did it give?
Answer: The Potency was inconclusive: 10 µM [quencher, partial curve].

Question: With `O=C(CN1CCN(Cc2ccccc2Cl)CC1)N/N=C/C=C/c1ccccc1[N+](=O)[O-]` as the compound, how does the Potency read?
Answer: Its Potency is inconclusive: 3.16 µM [quencher, side channel, partial curve, poor fit].

Question: For `O=C(CCS(=O)(=O)c1cccc2nsnc12)N1CC(=O)N(CCc2ccccc2)C(=O)C1`, which Potency is on record?
Answer: Its Potency is inconclusive: 7.08 µM [quencher, side channel, partial curve].

Question: With `Cc1ccc(C(=O)O/N=C(\N)c2nonc2N)cc1` as the compound, how does the “activity change, negative = inhibition” value read?
Answer: The value was inactive: -0.152%.

Question: `COc1ccc(-n2c(-c3cccc(OC)c3)nc(=S)c3c2CCCC3)cc1` was tested. Which Potency did it give?
Answer: The Potency was inconclusive: 25.1 µM [fluorescent, side channel, partial curve].

Question: With `Cc1ccc(NC(=O)c2csnn2)c(C)c1` as the compound, how does the Potency read?
Answer: Its Potency is inconclusive: 8.91 µM [quencher, side channel, single point].

Question: With `Cc1c(Cl)cccc1N=Cc1ccc([N+](=O)[O-])s1` as the compound, how does the “activity change, negative = inhibition” value read?
Answer: The value was inactive: 12.3%.

Question: `CC1CCCCC1NC(=O)CSc1ccsc1[N+](=O)[O-]` (centres undefined) was tested. Which Potency did it give?
Answer: Its Potency is inconclusive: 7.94 µM [quencher, side channel, partial curve].

Question: With `N#C/C(=N\Nc1ccc(S(=O)(=O)N2CCc3ccccc32)cc1)C(N)=S` as the compound, how does the Potency read?
Answer: The Potency was inconclusive: 31.6 µM [quencher, side channel, single point].

Question: Which Potency does the source give for `CC1CN(c2ccc(Cl)cc2[N+](=O)[O-])CCN1S(C)(=O)=O` (centres undefined) here?
Answer: The Potency was inconclusive: 15.8 µM [quencher, side channel, partial curve].

Question: Which Potency does the source give for `C/C(=N/NC(=O)CNC(=O)c1ccccn1)c1ccc([N+](=O)[O-])cc1` here?
Answer: The Potency was inconclusive: 3.55 µM [quencher, side channel, full curve].

Question: With `O=[N+]([O-])c1ccc(OCCN2CCNCC2)cc1` as the compound, how does the Potency read?
Answer: Its Potency is inconclusive: 25.1 µM [quencher, side channel, partial curve].

Question: How did the Potency turn out when `COc1ccc(N(C(=O)c2cccnc2)S(=O)(=O)c2cccc([N+](=O)[O-])c2)cc1` was run?
Answer: The Potency was inconclusive: 17.8 µM [quencher, side channel, partial curve].

Question: With `COc1ccccc1N(CC(=O)NCc1ccccc1)C(=O)CCC(=O)Nc1cc(C)ccn1` as the compound, how does the Potency read?
Answer: The Potency was inconclusive: 50.1 µM [inhibitor, single point].

Question: `COc1ccc(/C=N/NC(=O)CNC(=O)c2ccncc2)cc1OC` was tested. Which Potency did it give?
Answer: Its Potency is inconclusive: 31.6 µM [quencher, side channel, single point].

Question: Which “activity change, negative = inhibition” value does the source give for `Cc1cc(C)cc(C(=O)NCC(=O)OCC(=O)N(C)c2ccccc2)c1` here?
Answer: Its value is inactive: -2.28%.

Question: `COc1cc(OC)c(OC)cc1/C=N/NC(=O)c1cccc(S(=O)(=O)N2CCOCC2)c1` was tested. Which Potency did it give?
Answer: Its Potency is inconclusive: 25.1 µM [quencher, side channel, single point].

Question: How did the Potency turn out when `CC(=O)N(C1=C(O)c2ccccc2C(=O)C1=O)C1CCCCC1` was run?
Answer: Its Potency is inconclusive: 15.8 µM [quencher, partial curve].

Question: Which “activity change, negative = inhibition” value does the source give for `CN(C(=O)CN1CCC(NC(=O)c2ccccc2Br)CC1)C1CCCCC1` here?
Answer: Its value is inactive: -0.15%.

Question: For `Cc1ccc(Cn2c(S(=O)(=O)O)nc3ccccc32)cc1`, which “activity change, negative = inhibition” value is on record?
Answer: Its value is inactive: -5.54%.

Question: `CC1(C)Cc2c(sc3nnn(CC(=O)Nc4ccccc4)c(=O)c23)CO1` was tested. Which Potency did it give?
Answer: The Potency was inconclusive: 15.8 µM [quencher, partial curve].

Question: With `CC1(C)CC(CC(=O)Nc2ccc([N+](=O)[O-])cc2)C(=O)O1` (centres undefined) as the compound, how does the Potency read?
Answer: Its Potency is inconclusive: 28.2 µM [quencher, side channel, partial curve].

Question: With `Cc1ccc(C(=O)COC(=O)c2cccc(NC(=O)c3ccc([N+](=O)[O-])cc3[N+](=O)[O-])c2)cc1` as the compound, how does the Potency read?
Answer: The Potency was inconclusive: 5.62 µM [quencher, side channel, partial curve].

Question: For `CCN1C(=O)c2cccc3c(S(=O)(=O)NCCCN4CCOCC4)ccc1c23`, which Potency is on record?
Answer: Its Potency is inconclusive: 17.8 µM [quencher, side channel, partial curve].

Question: With `CCCCN(C(=O)c1ccc(Cl)cc1)C1CC2CCC(C1)N2C` (centres undefined) as the compound, how does the “activity change, negative = inhibition” value read?
Answer: The value was inactive: -1.86%.

Question: How did the Potency turn out when `COCCCNC(=O)c1cc2cc(Br)ccc2oc1=O` was run?
Answer: The Potency was inconclusive: 3.55 µM [quencher, side channel, partial curve].

Question: For `COC(=O)/C(C#N)=C/c1ccc(C)o1`, which Potency is on record?
Answer: The Potency was inconclusive: 20 µM [quencher, side channel, partial curve].

Question: For `CNC(=O)CNC(=O)Nc1ccc(Cl)c(Cl)c1`, which Potency is on record?
Answer: The Potency was inconclusive: 100 µM [inhibitor, single point].

Question: `CCSC1=C(C#N)C(c2ccccc2OC)CC(=O)N1` (centres undefined) was tested. Which “activity change, negative = inhibition” value did it give?
Answer: The value was inactive: 1.17%.

Question: With `O=C(O)c1[nH]c2ccc([N+](=O)[O-])cc2c1-c1ccccc1` as the compound, how does the Potency read?
Answer: Its Potency is inconclusive: 17.8 µM [quencher, side channel, partial curve].

Question: `CCCn1c2ccc(C)cc2c2nnc(SCCN3CCCCC3)nc21` was tested. Which Potency did it give?
Answer: The Potency was inconclusive: 15.8 µM [quencher, side channel, partial curve].

Question: For `CCOc1cccc(=O)c2c(C)n(CC(=O)c3ccccc3)c(C)c12`, which Potency is on record?
Answer: The Potency was inconclusive: 10 µM [quencher, side channel, partial curve].
